These results are taken from the RNAGym collection of RNA variant scans (doi:10.1093/nar/gkz1192).

The source gives no read counts; variants with many changes may rest on few reads.

B1: CPEB3 Ribozyme (parent)
chain: UAACAGGGGGCCACAGCAGAAGCGUUCACGUCGCAGCCCCUGUCAGAUUCUGGUGAAUCUGCGAAUUCUGCUGUAUAUCUC

Variants of B1 are the subject of the series. Put plainly: self-cleavage, relative activity (ratio to wild type); higher = more cleavage; in vitro, sequencing. In outline:
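For each CPEB3 ribozyme variant, relative activity is its cleaved/total read fraction divided by the unmutated ribozyme's. Barcoded error-prone PCR libraries were transcribed by T7 RNA polymerase (5 hours, 37°C) and held in DNase I for 15 min before an EDTA stop, with cleavage occurring throughout. Template-switching reverse transcription and Illumina sequencing were used to read the RNAs. A 5-read minimum applied, and results are the mean of three batches.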
For U26A A35G G42A U74C, the self-cleavage worked out at 0.42.
Regarding U25A U43C A45G U60G, the self-cleavage came out at 0.1.
As to U25C G46A U76C U78C, the self-cleavage turned out to be 0.08.
The same measure for U25A G30A U49A: 0.24; for U25A C44A U74C: 0.39.
In the case of U26A A28G G36A U41A U49C U67C, the self-cleavage came to 0.05.
The same measure for U25C U43C U72A U80C: 0.25; for U25C G52U U67C U74C: 0.15.
On to U25C A28U C32A, for which the self-cleavage was 0.21.
As to U25C U58C U60C U67C, the self-cleavage amounted to 0.11.
With U25C U26C A28G A45U U48C A64C, the self-cleavage came to 0.06.
On to U25A A28G U49G U54A A56C A64C U78C, for which the self-cleavage was 0.07.
The same measure for U26A A28G U72A: 0.08.
The same measure for U25C C29U U80A: 0.04; for U26A A57G U66G: 0.39.
The value for U26A A47U A56G A77G was 0.12; that for U25C U41A A56G A64G C81U was 0.04; that for U25C U31A C59U was 0.17.
In the case of U25C A35U A47G U54C U58A U66C A75U, the self-cleavage turned out to be 0.12.
Turning to U25C U26A U43C A45U U54C, the self-cleavage stood at 0.08.
The same measure for U26A A47G U49C U80C: 0.29; for U26A C37A U41A U51A A57G U58C: 0.09.
Regarding U25C U31C U43C A64G, the self-cleavage was determined as 0.16.
The value for U25G A35U U60A A64G A65G U67C was 0.06; that for U25C A47G G61C A77U was 0.23; that for U25C G36C U58C A64G was 0.12.
As to U25C U51A A56G U60A U66C G70A, the self-cleavage was 0.19.
For the variant U25C U26C U69A U72A U78C, the self-cleavage is 0.07.
As to G24C C37U U41A U54C, the self-cleavage turned out to be 0.14.
As to U25C A47G U67C U72C, the self-cleavage came to 0.13.
Turning to U25C A35U U60C U72C, the self-cleavage turned out to be 0.41.
The same measure for U25C A47G U48A A56G: 0.15.
As to G24U U67A G70A U80C, the self-cleavage is 0.17.
Regarding U25C A35G C39U U43C U49C U78C, the self-cleavage was 0.09.
On to U25A C32G A45U A65G, for which the self-cleavage was 0.05.
Turning to U25C U41C U51C U54C, the self-cleavage worked out at 0.26.
Regarding U25C U41C C62U U69A U76A, the self-cleavage stood at 0.07.
The value for U25C U41C U48C U60C was 0.07; that for U25C C29G G42A U78C was 0.24.
As for U25C U41C U74C, the self-cleavage came to 0.14.
The value for U25A G33C U54C A64G U74C U80C was 0.1; that for U25C C39U A45G A56U U78C was 0.14.
The same measure for G24U U31C U51G U78C: 0.16; for U25C A28C U74C: 0.13.
The value for U25C U26C U31C A65U U67A was 0.12; that for U25C U26C U48C U69G U72A was 0.04; that for U25C C32A U41C U51C U54C was 0.42.
For U25A A45U A56U U69C, the self-cleavage was determined as 0.06.
Regarding U25G C37U U54C, the self-cleavage is 0.2.
The value for U25C U54C U69A U72C U80G was 0.07; that for U25C A65G U80C was 0.36; that for U25C U51C A64G U67C was 0.13.
On to U26A A35U G46U U58C A75G U78A, for which the self-cleavage turned out to be 0.06.
For the variant U25C U54C U60A U78C, the self-cleavage came to 0.1.
The same measure for U25A U43A A64G U78C: 0.15.
Consider U25A G53U A56G U69A, for which the self-cleavage stood at 0.25.
As to U26A A28U A65G, the self-cleavage was determined as 0.27.
As for U25A G52A U54C C79A, the self-cleavage came out at 0.22.
The value for G24C A65U U67G U76C was 0.14; that for U25C C38A U54A U72G U80C was 0.21; that for U25C U41C G53A U69A was 0.09.
Regarding U25C U43C A56G, the self-cleavage amounted to 0.06.
The same measure for U25A U49C U60A: 0.06; for U25A C39G A77G: 0.07; for U25C U49C A56C: 0.16.
The same measure for U25C U41A A77G: 0.03; for U25C U31C U51G: 0.14.
With U25C C37U C44A U69C, the self-cleavage is 0.09.
With U25G U51C U60C U67A, the self-cleavage is 0.06.
In the case of U25A U51C U66C, the self-cleavage is 0.19.
With U25C C32U U41G U49A G61A U76A, the self-cleavage came out at 0.05.
The same measure for G24C U31C U41A A47G U74C U78C: 0.09.
The same measure for U25C A28U A35G U49A U60A: 0.12.
Consider U25C A45G U58C, for which the self-cleavage was 0.29.
The value for U25A A56U U58A U69C U72A A77G was 0.05.
The value for U25A U43A A64U U78G was 0.08.
On to G24U U51C U78C, for which the self-cleavage turned out to be 0.17.
Take U26A A35G C40U U48C U54C A57G: the self-cleavage stood at 1.27.
For U25C G53A U80C, the self-cleavage is 0.27.
Consider U25C U41A A64C, for which the self-cleavage turned out to be 0.24.
As for U25C A47C U60A U69A, the self-cleavage amounted to 0.16.
The same measure for U25C U31A C37U: 0.13.
For U26A C29U A35U U48G U67A U72A, the self-cleavage was determined as 0.06.
For U25C U51A A56U, the self-cleavage was found to be 0.11.
The value for U25C U41A A47G U58A U66C was 0.09; that for U25C U26C U51A was 0.1.
The value for U25C A35G C37U U60C was 0.18; that for U25C U41C U54A was 0.31; that for U25A U49A C62U U69C was 0.13.
For U25C A28C U67C C79G, the self-cleavage was 0.06.
Regarding U25A A28G C38U A56U U67A, the self-cleavage was 0.12.
As to U25C U43G A45G, the self-cleavage was 0.12.
For U25C U48C A56U U67C, the self-cleavage came out at 0.16.
The value for U26A A28U C29G U31C A35G was 0.2.
For U25C A28G A65U U72A, the self-cleavage was 0.12.
For U25G A28G A35G U54C U60A, the self-cleavage was determined as 0.04.
In the case of U25A A56G U78C, the self-cleavage was 0.06.
The value for U25C U41C G42A A47G U80C was 0.2; that for U25C G46U U69A was 0.11; that for U25C U48C U60C C81U was 0.17.
The same measure for U25C U48C U80C: 0.39.
In the case of U25C U54C U72C, the self-cleavage stood at 0.12.
Take U25C A57G A77U: the self-cleavage was 0.41.
On to U25C C27G U51G U66C, for which the self-cleavage was 0.17.
Regarding U25A U49C A56G, the self-cleavage is 0.22.
The same measure for U25C U31A C38A: 0.11; for U25A G63U U69G: 0.16.
For the variant U25C C34U G36U A45G U48C U60C U76C, the self-cleavage worked out at 0.05.
For U25C C39U U41C U43A, the self-cleavage amounted to 0.23.
Regarding U25C A28U U43C U72A, the self-cleavage turned out to be 0.08.
In the case of U26A A45C U51A, the self-cleavage turned out to be 0.2.
Take U25C C29A A35U A45G A57G C81U: the self-cleavage worked out at 0.17.
For U25C U26C A35U U66A A77C U78A, the self-cleavage came out at 0.11.
The value for U25C A56U A64U was 0.12; that for U25C U49A U66A was 0.18; that for U25C U51C A56U was 0.08.
For the variant U25C C27U U72C, the self-cleavage is 0.14.
In the case of U25C U26A G46U C50U U66C, the self-cleavage was 0.05.
Take U25C C71G U78C: the self-cleavage was determined as 0.12.
For the variant U25C A28G U49C G55C U69C A75U, the self-cleavage amounted to 0.02.
With U25C A57G U78G, the self-cleavage came to 0.11.
The same measure for U25C U41A A57U: 0.2; for U25C U43C C44U U60C C79A: 0.17; for U25C U31C U43C A56G U72A C81U: 0.1.
On to U25C C38U U66C, for which the self-cleavage was 0.41.
On to U25C U41A A65G U66C U72C, for which the self-cleavage amounted to 0.07.
The value for G24C U25C U41C U80A was 0.21.
For U25C A56G U78A, the self-cleavage is 0.04.
The same measure for U25C A57G U72C: 0.24.
Take U25C C59U A64U U72C: the self-cleavage was 0.1.
As to U25A A28U A57G U60A G63A, the self-cleavage amounted to 0.29.
Regarding U25C C27U A45U A47U U49A U69A, the self-cleavage is 0.07.
The same measure for U25C A28G U72C A77C: 0.09; for U25A G33C A57G U67A U80C: 0.05.
For the variant U25C A28G A56U U69C, the self-cleavage was 0.2.
Turning to U25C A45G U66C U72C, the self-cleavage came to 0.4.
With U25C U54C U67A, the self-cleavage was 0.29.
Regarding U25C C50A U66C, the self-cleavage was determined as 0.26.
With U26A A28C A56G, the self-cleavage came out at 0.2.
The same measure for U25C C37A U41C U49C A64U: 0.1.
Consider U25C U54A U80C, for which the self-cleavage came out at 0.27.
For G24U U41A A56U U80C C81A, the self-cleavage came to 0.07.
Regarding U25C C29U A35G U43A A64G A75U U76G, the self-cleavage amounted to 0.12.
On to U25C U26A U54C, for which the self-cleavage is 0.32.
U25C C44G U51C A64G: the self-cleavage amounted to 0.15.
Take U25A A35G U80C: the self-cleavage was 0.38.
U25C A35U A64G U76C: the self-cleavage turned out to be 0.15.
For the variant U25A A35G A45G, the self-cleavage is 0.15.
Regarding U25C A64U A75U, the self-cleavage stood at 0.3.
The value for U25C G52A A64G was 0.51; that for U26A A45U U72A was 0.21; that for U25C U43C U60A A64G U80A was 0.38.
For U25A U26C G30U A56G, the self-cleavage was 0.17.
As for U25C C39U U43C U66A, the self-cleavage came out at 0.15.
The value for U25C U43A U60C U76C was 0.09; that for U25A U31C U58A was 0.06; that for U26A A35C U54C C62U was 0.11.
The same measure for U25C U43C U54C U80C: 0.12.
With G24U U49C U54G U60A C81A, the self-cleavage is 0.06.
Turning to U25C U60C U74C, the self-cleavage was found to be 0.37.
Consider U26A A47U A57G G63U U67C C71U, for which the self-cleavage is 0.03.
Regarding G24C U31C A65G U80C, the self-cleavage is 0.31.
Take U25C A45C A56G: the self-cleavage is 0.16.
For U25C A28U G30A U60C U69A U78A, the self-cleavage was determined as 0.08.
As for U25C A57G U80C, the self-cleavage worked out at 0.45.
For U25C U58A U72C U80C, the self-cleavage was 0.08.
U25A U51A A57G A75C U76C: the self-cleavage is 0.23.
